We go through 115 sequences from the BET-seq Pho4 binding data (Le et al. 2018).

This is one part of the list. These are noisy estimates, calculated here from bound and input reads.

The target of this assay is T1, Pho4 (S. cerevisiae) (UniProt P07270).
T1 sequence: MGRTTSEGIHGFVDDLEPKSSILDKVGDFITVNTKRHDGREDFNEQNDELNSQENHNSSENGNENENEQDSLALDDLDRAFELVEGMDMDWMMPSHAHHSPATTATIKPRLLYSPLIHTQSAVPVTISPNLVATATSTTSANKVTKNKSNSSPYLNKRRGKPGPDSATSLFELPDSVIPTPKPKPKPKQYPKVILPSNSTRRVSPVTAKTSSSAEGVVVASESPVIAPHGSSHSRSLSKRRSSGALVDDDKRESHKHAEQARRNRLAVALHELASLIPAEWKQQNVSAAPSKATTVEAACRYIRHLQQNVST
Kind of assay: relative binding free energy (BET-seq); higher = weaker binding. The note with it: reference: library average.
For TGGTGCACGTGTTGTT, the “relative binding free energy” value was determined as 0 kcal/mol. Then CTGGACACGTGGGAGG, with -0.15 kcal/mol; and TACTACACGTGAGGTT, with 0.28 kcal/mol; and GACTTCACGTGGTGTA, with 0.2 kcal/mol. Then TTTGGCACGTGACGTT, with 0 kcal/mol. With TGGTCCACGTGTTAAA, the “relative binding free energy” value turned out to be 0.21 kcal/mol. For the sequence TTGAACACGTGTGTGT, the “relative binding free energy” value stood at 0.14 kcal/mol. Then TGGTGCACGTGGCCAT, with -0.08 kcal/mol; and AAATTCACGTGGTATT, with 0.21 kcal/mol; and CTGTTCACGTGAGGTA, with 0.33 kcal/mol. Then ATTATCACGTGGGGTC, with -0.06 kcal/mol; and GGGAGCACGTGTATTT, with 0.06 kcal/mol; and TTCATCACGTGAAATG, with 0.38 kcal/mol. AGCATCACGTGAGTTG: the “relative binding free energy” value turned out to be 0.31 kcal/mol. For ATAGGCACGTGGGTTC the value was -0.22 kcal/mol; for TTAATCACGTGTGATT, 0.31 kcal/mol. Then ATCTGCACGTGAGGTG, with 0.32 kcal/mol; and ATGGTCACGTGTGAAC, with 0.18 kcal/mol; and CAGTACACGTGTAGGG, with 0.13 kcal/mol. For CTTTGCACGTGTTGGG, the “relative binding free energy” value stood at 0 kcal/mol. Then AGTGGCACGTGTTTGA, with 0 kcal/mol; and CGGTGCACGTGTTGGC, with -0.07 kcal/mol; and TGTGTCACGTGAGTAA, with 0.29 kcal/mol. Then GTGGACACGTGTGTAA, with 0.17 kcal/mol. Then TTGAACACGTGGCGGC, with -0.02 kcal/mol.

GCATTCACGTGAGTGT: the “relative binding free energy” value turned out to be 0.37 kcal/mol.

In the case of TTCTGCACGTGGGTCT, the “relative binding free energy” value is -0.15 kcal/mol. For the sequence CTGATCACGTGGGTAT, the “relative binding free energy” value is -0.12 kcal/mol.

On to ATGAGCACGTGTTGGT, for which the “relative binding free energy” value was -0.08 kcal/mol. Then TATGGCACGTGGATAG, with -0.18 kcal/mol; and AAGTCCACGTGAAGGG, with 0.32 kcal/mol; and GATGGCACGTGGTGGC, with 0.02 kcal/mol.

In the case of ATCGACACGTGTGGTA, the “relative binding free energy” value is 0.11 kcal/mol. GGTAGCACGTGTGTAG: the “relative binding free energy” value is -0.03 kcal/mol. Consider TTTGCCACGTGGTGAG, for which the “relative binding free energy” value was -0.16 kcal/mol. CTTAGCACGTGATAGT: the “relative binding free energy” value was found to be 0.11 kcal/mol. Then AATGTCACGTGATTTT, with 0.23 kcal/mol; and TTAGACACGTGACGGT, with 0.16 kcal/mol.

For the sequence TAGGGCACGTGTTCTA, the “relative binding free energy” value is -0.16 kcal/mol. As for ATTGGCACGTGTTGCT, the “relative binding free energy” value was -0.07 kcal/mol.

In the case of AGGGACACGTGGTGAA, the “relative binding free energy” value was -0.05 kcal/mol.

With ATCGTCACGTGGTGGA, the “relative binding free energy” value worked out at 0.05 kcal/mol. Turning to TGGTTCACGTGGATCA, the “relative binding free energy” value turned out to be 0.33 kcal/mol. Then ACTTTCACGTGGGTGA, with 0.27 kcal/mol; and GCGGGCACGTGGGAAA, with -0.15 kcal/mol; and TGATTCACGTGTTGAG, with 0.26 kcal/mol. Then AGGAACACGTGGCTGG, with -0.03 kcal/mol; and AAGGACACGTGTGTAA, with 0.13 kcal/mol; and AGTGGCACGTGGGGCA, with -0.21 kcal/mol.

On to TGGGACACGTGGTACT, for which the “relative binding free energy” value was -0.14 kcal/mol. Then TGAGACACGTGTAAGG, with 0.06 kcal/mol.

On to CGGGCCACGTGGGTAT, for which the “relative binding free energy” value was -0.27 kcal/mol. For GGTAACACGTGGGGAG the value was -0.02 kcal/mol.

Turning to TACGTCACGTGGGCGT, the “relative binding free energy” value was -0.07 kcal/mol. Then GCGGTCACGTGCGATG, with 0.21 kcal/mol. Then AGGATCACGTGTTTGG, with 0.09 kcal/mol.

As for TGGGCCACGTGTGAGA, the “relative binding free energy” value was 0.11 kcal/mol. Then TCTGTCACGTGTGTAG, with 0.11 kcal/mol; and ATGTGCACGTGGTATA, with -0.28 kcal/mol.

Regarding CGGGACACGTGAGTTT, the “relative binding free energy” value came out at 0.22 kcal/mol.

GTTGGCACGTGGTCAA: the “relative binding free energy” value was -0.07 kcal/mol. Turning to GTGTCCACGTGTATGT, the “relative binding free energy” value is -0.1 kcal/mol.

With CGGTGCACGTGACGTG, the “relative binding free energy” value is -0.03 kcal/mol. For TTATCCACGTGGTGGT the value was -0.06 kcal/mol; for TATATCACGTGAGGTG, 0.33 kcal/mol; for ATGCTCACGTGGGTGA, -0.04 kcal/mol. Then TTGTGCACGTGGGCAT, with -0.07 kcal/mol; and TGTTGCACGTGATGAA, with 0.15 kcal/mol. For TTAGACACGTGGTGTA the value was -0.02 kcal/mol; for CAAATCACGTGAGGGT, 0.32 kcal/mol; for TATAGCACGTGTGTAT, -0.03 kcal/mol. As for GTTGGCACGTGACGTT, the “relative binding free energy” value was 0.23 kcal/mol. Then GGTAACACGTGGGGCA, with -0.09 kcal/mol; and TGTAGCACGTGAGGAC, with 0.21 kcal/mol. On to GAGTGCACGTGGCTTG, for which the “relative binding free energy” value is -0.05 kcal/mol. For TGTAGCACGTGTCCGG the value was -0.02 kcal/mol; for TTTTTCACGTGAGTTG, 0.46 kcal/mol; for CGGATCACGTGGGGAA, -0.06 kcal/mol. Then GAGATCACGTGGTGAT, with 0.1 kcal/mol; and TATGGCACGTGTAACG, with 0.07 kcal/mol; and GACAACACGTGGAGGT, with 0.28 kcal/mol. Then TAAGTCACGTGGTCAT, with 0 kcal/mol; and GGTTACACGTGGGAGA, with 0.13 kcal/mol.

As to ACAATCACGTGGGTGT, the “relative binding free energy” value came to 0.06 kcal/mol. For AGCGTCACGTGGTGAG the value was 0.02 kcal/mol; for GTGCTCACGTGTGTTA, 0.37 kcal/mol; for TAAGTCACGTGGATTT, 0.23 kcal/mol. Then AGGTACACGTGGTAAA, with 0.01 kcal/mol. For ACGTTCACGTGACGGT the value was 0.46 kcal/mol; for CTTATCACGTGTTGGC, 0.1 kcal/mol; for GTGCGCACGTGTTTGG, 0.01 kcal/mol. With GTCGACACGTGATAGG, the “relative binding free energy” value was determined as 0.17 kcal/mol. For GGTCGCACGTGTGTCG the value was -0.04 kcal/mol. With AGCTTCACGTGGCTGG, the “relative binding free energy” value came out at 0.19 kcal/mol.

As to TTTCTCACGTGTTATA, the “relative binding free energy” value is 0.17 kcal/mol.

As for TACATCACGTGGGGGA, the “relative binding free energy” value is 0.03 kcal/mol.

With GCTGTCACGTGATGGC, the “relative binding free energy” value turned out to be 0.39 kcal/mol.

Take ACGGTCACGTGTGTGT: the “relative binding free energy” value is 0.06 kcal/mol.

In the case of CGGTACACGTGAGTTA, the “relative binding free energy” value amounted to 0.36 kcal/mol. For GATTTCACGTGGCCTG the value was 0.45 kcal/mol; for ACATTCACGTGTGGGA, 0.33 kcal/mol; for AAGTGCACGTGTTGTA, -0.01 kcal/mol.

With TTGCCCACGTGATGGG, the “relative binding free energy” value was 0.01 kcal/mol. Then TGATACACGTGGGGTT, with -0.15 kcal/mol. Take TAGATCACGTGGGTTA: the “relative binding free energy” value came out at 0.01 kcal/mol. For GTCGGCACGTGGTTAT the value was -0.08 kcal/mol; for ATTGGCACGTGAGCGG, -0.03 kcal/mol; for GGGCGCACGTGGGGTG, -0.33 kcal/mol. For TAAATCACGTGTGGGC the value was 0.1 kcal/mol; for GTTGGCACGTGAAGTG, 0.27 kcal/mol. For CTTGTCACGTGCGGCT the value was 0.08 kcal/mol. For the sequence AGATACACGTGCAGGG, the “relative binding free energy” value came out at 0.12 kcal/mol. Then GGGTACACGTGGAGTA, with 0.01 kcal/mol; and AGCGTCACGTGATGTG, with 0.14 kcal/mol; and TTACTCACGTGGAAGG, with 0.27 kcal/mol.
